# Reference: the BET-seq Pho4 binding data (Le et al. 2018)
# The list shows a part of the results. These are noisy estimates, calculated here from bound and input reads.
# Target: T1, Pho4 (S. cerevisiae) (UniProt P07270)
# T1 sequence: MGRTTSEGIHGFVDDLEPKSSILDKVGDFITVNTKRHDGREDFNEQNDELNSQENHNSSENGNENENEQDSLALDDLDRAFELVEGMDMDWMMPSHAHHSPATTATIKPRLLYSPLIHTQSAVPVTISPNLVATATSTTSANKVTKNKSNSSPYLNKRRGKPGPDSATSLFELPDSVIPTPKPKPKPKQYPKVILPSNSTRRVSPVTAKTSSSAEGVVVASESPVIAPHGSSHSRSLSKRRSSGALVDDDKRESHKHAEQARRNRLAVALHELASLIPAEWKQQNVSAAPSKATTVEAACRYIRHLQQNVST
# Test: relative binding free energy (BET-seq); higher = weaker binding
# Conditions: reference: library average
row,Sequence,relative binding free energy [kcal/mol]
1,TTGCGCACGTGAGGCA,0.15
2,ATTGTCACGTGTTGGC,0.24
3,GTGAACACGTGGTGGG,0.08
4,TAGACCACGTGGTGGG,-0.19
5,TTTATCACGTGTTATA,0.12
6,TCGGGCACGTGAAGTT,0.24
7,GTTGTCACGTGCAGAG,0.04
8,GTATACACGTGTGTTC,0.06
9,CAGGGCACGTGTTGAT,-0.04
10,ATGGGCACGTGGATTC,0.12
11,CAGGACACGTGGAGGT,0.1
12,TATTGCACGTGGTAGG,-0.01
13,TTATGCACGTGAAGCT,0.21
14,ACGGTCACGTGGGAAG,0.08
15,TTTTACACGTGTGTGG,0.24
16,GTGAGCACGTGTTAGC,0.06
17,TATCGCACGTGGAATT,0.14
18,ATGGTCACGTGAGAGA,0.3
19,TTTTACACGTGGTAAG,0.18
20,CGTTCCACGTGGGAGG,0.03
21,AATGGCACGTGGGGCC,-0.2
22,CAGTACACGTGATGGT,0.04
23,TAGGACACGTGTTATT,-0.02
24,GTACTCACGTGAGTGT,0.32
25,TGAGCCACGTGGGCGG,-0.23

row,Sequence,relative binding free energy [kcal/mol]
1,ACGTTCACGTGAGTGG,0.32
2,TGATTCACGTGAAGTT,0.36
3,TGGGGCACGTGACGGG,0.06
4,GGTGGCACGTGTAGTA,-0.03
5,AGGGTCACGTGTATTG,0.01
6,TTGGTCACGTGCAGTG,0.08
7,TTAACCACGTGGAGGG,-0.06
8,GGCATCACGTGGCGTG,0.02
9,ATGGACACGTGAGATG,0.27
10,GGGTGCACGTGGCATA,-0.14
11,AATGGCACGTGGTGCT,-0.2
12,AATAACACGTGGAGTT,0.05
13,GATCGCACGTGGGTGG,-0.17
14,GTAATCACGTGTTTGG,0.19
15,TCGAGCACGTGTTTGG,-0.11
16,AAGGGCACGTGAGTGT,0.08
17,TGGGGCACGTGTAACG,0.07
18,ATGTTCACGTGCTAGT,0.16
19,TGGGACACGTGTGAAG,0.19
20,GCTAGCACGTGAGTGG,0
21,TTCGGCACGTGTAGGG,-0.02
22,TGGATCACGTGCTGGA,0.17
23,ATTTCCACGTGTATTG,0.09
24,CTGGACACGTGGTAGG,0.11
25,ATGGGCACGTGAGTCG,0.16

row,Sequence,relative binding free energy [kcal/mol]
1,AGTACCACGTGTAGGT,-0.2
2,TGTGACACGTGGGGCC,-0.27
3,TTGGTCACGTGTAGGC,0.15
4,CGGAGCACGTGAATTG,0.22
5,TGGTTCACGTGGTGCG,0.13
6,TCGTGCACGTGAGTTG,0.26
7,GAGGGCACGTGGTTTA,-0.07
8,GTTGACACGTGATGGG,0.1
9,TGAGGCACGTGACAGG,0.03
10,TTTTTCACGTGGTGGT,0.27
11,CAGTTCACGTGTGGTT,0.25
12,TGTTCCACGTGTTATA,0.02
13,GGGGGCACGTGTCAGC,-0.08
14,GCGTTCACGTGTGGTT,0.28
15,GCATGCACGTGGAGTG,-0.05
16,CGGTGCACGTGTATAT,-0.09
17,TTGGTCACGTGGTGGG,0.12
18,TTAAGCACGTGTGATC,0.12
19,TAGTGCACGTGGGTGG,-0.11
20,CATGGCACGTGGTTCT,-0.11
21,GTCTTCACGTGGGCGG,0.22
22,AGTATCACGTGTGAAT,0.24
23,GTTTGCACGTGCCATG,-0.04
24,AAGTTCACGTGCGGGT,0.32
25,GGTTACACGTGTGGTC,0.31

row,Sequence,relative binding free energy [kcal/mol]
1,TTTAACACGTGTTGGA,0.03
2,TTTGTCACGTGTACGA,-0.02
3,AGTGTCACGTGTAACT,0.05
4,GGCGGCACGTGTAAGT,0.11
5,GTGAGCACGTGGGCTG,-0.25
6,TCTTGCACGTGGGCAG,-0.12
7,TGTTGCACGTGGTCAA,-0.03
8,GTGGTCACGTGTGGGT,0.17
9,GTGGTCACGTGGAGTT,0.12
10,CAGTTCACGTGGCTTG,0.31
11,CGTTTCACGTGGGGAG,0.15
12,GCGGACACGTGATGTG,0.28
13,GTGGACACGTGTGGGA,0.1
14,CGGGGCACGTGGATTT,-0.05
15,TTCTGCACGTGTTTTC,-0.01
16,CTAATCACGTGGTATG,-0.01
17,CGTGGCACGTGATCTG,0
18,TGTCGCACGTGCTTGT,-0.2
19,TTGTCCACGTGGGTCG,-0.03
20,TTTGGCACGTGAAATA,0.3
21,CTGGCCACGTGTGTGG,-0.08
22,GCGTGCACGTGGGTAT,0.04
23,CTTTGCACGTGGGTTT,-0.07
24,GGTATCACGTGTGGAG,0.14
25,GGCGACACGTGCGGGT,0.05

row,Sequence,relative binding free energy [kcal/mol]
1,GATGGCACGTGTGTGA,0
2,TTGAACACGTGTCTGG,0.04
3,TCTCTCACGTGGTTGT,0.29
4,GGAGTCACGTGATGTT,0.24
5,AGCGTCACGTGGATGG,-0.01
6,AGGGTCACGTGTACAT,-0.01
7,ATGGTCACGTGCAGAT,0.09
8,CGTGTCACGTGGTTAA,-0.08
9,AGTTACACGTGGATAA,0.2
10,GTGAGCACGTGGGGGC,-0.17
11,TAGAGCACGTGCGGGT,-0.15
12,AGTGACACGTGATTTT,0.15
13,CGAGGCACGTGGGGGA,-0.29
14,ATTTGCACGTGGGCAG,0.02
15,ATGAGCACGTGGGAAT,-0.05
16,GGGAACACGTGGCGGT,0.05
17,GTTTCCACGTGGTCGT,0.04
18,TTTTTCACGTGATGGG,0.41
19,AAGATCACGTGGGGAA,0.02
20,TGGGACACGTGCAGTG,-0.07
21,TGTGTCACGTGTTGGT,0.06
22,TGGGGCACGTGGGCTG,-0.18
23,ATTTTCACGTGTACAT,0.06
24,TTTTGCACGTGGTCCG,-0.19
25,CTTGGCACGTGGTTGG,-0.13

row,Sequence,relative binding free energy [kcal/mol]
1,TGAAGCACGTGGATAT,-0.07
2,GTTGACACGTGGCGCG,-0.02
3,AGCGGCACGTGCGGTT,-0.15
4,CTGGGCACGTGCTGTT,-0.14
5,TATTTCACGTGCGTGG,0.24
6,TTAGGCACGTGTGCTG,-0.1
7,TCACTCACGTGTGGGT,0.08
8,AGAGGCACGTGGGGTT,-0.21
9,TTGATCACGTGGTAAA,0.07
10,GTCGGCACGTGGAGTG,0.01
11,GCGCACACGTGGTGGT,-0.01
12,GGTTTCACGTGGCTCG,0.26
13,TCTTTCACGTGTTGGA,0.29
14,TTAGGCACGTGATAAG,-0.07
15,TATTACACGTGTATTT,-0.07
16,GGTCACACGTGTTGGA,0.08
17,GGGCGCACGTGGGTGA,-0.2
18,CGGTACACGTGAGAGG,0.17
19,TATCGCACGTGGGTCG,-0.18
20,GTAGACACGTGCGGTT,-0.07
21,AAAGTCACGTGATGAT,0.11
